A lower IC50 marks a more sensitive line; where the fit passes the top or lowest dose, that dose stands as a limit. AUC sums up the same curve from the lowest dose to the 256-fold higher top dose: 1 means no effect, lower means more sensitive. For some assays here: A top dose marked as inferred comes from the curve model; the source does not state it. For some assays here: An entry number marks a drug with two screens in the source, which often give different values.
Assays:
Test in all cases: Viability of human cancer cell lines after 72 h of drug (GDSC screen)
Tretinoin = compound: CC1=C(/C=C/C(C)=C/C=C/C(C)=C/C(=O)O)C(C)(C)CCC1 [Tretinoin]; conditions: top dose 10 µM; top dose inferred
Protocol: (§1)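 Human cancer cell lines in 384-well plates, medium with 10% serum, drug for 72 h over a 256-fold dose range (nine 2-fold or five 4-fold steps up to the top dose). Adherent lines were fixed and stained with the nucleic acid dye Syto60, suspension lines read with resazurin; signal relative to control wells, capped at 0 and 100%. One two-parameter sigmoid per drug and line, fitted in a mixed model over all curves with the slope shared within a line.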

GSK690693 = compound: CCn1c(-c2nonc2N)nc2c(C#CC(C)(C)O)ncc(OC[C@H]3CCCNC3)c21 [GSK690693]; conditions: top dose 10.24 µM; top dose inferred
Protocol: as §1

UNC0638 = compound: COc1cc2c(NC3CCN(C(C)C)CC3)nc(C3CCCCC3)nc2cc1OCCCN1CCCC1 [UNC0638]
Protocol: as §1

WH-4-023 = compound: COc1ccc(N(C(=O)Oc2c(C)cccc2C)c2ccnc(Nc3ccc(N4CCN(C)CC4)cc3)n2)c(OC)c1 [WH-4-023]; conditions: top dose 5.12 µM; top dose inferred
Protocol: as §1

SB-505124 = compound: Cc1cccc(-c2[nH]c(C(C)(C)C)nc2-c2ccc3c(c2)OCO3)n1 [SB-505124]; conditions: top dose 10 µM; top dose inferred
Protocol: as §1

BX-795 = compound: O=C(NCCCNc1nc(Nc2cccc(NC(=O)N3CCCC3)c2)ncc1I)c1cccs1 [BX-795]; conditions: top dose 5 µM; top dose inferred
Protocol: as §1

PI-103 = compound: Oc1cccc(-c2nc(N3CCOCC3)c3oc4ncccc4c3n2)c1 [PI-103]; conditions: top dose 10.24 µM
Protocol: as §1

[1] = top dose 20 µM, screen: GDSC drug entry 1236, top dose inferred
[2] = top dose 40 µM, screen: GDSC drug entry 245

| Cell Line | AUC (Tretinoin) | IC50 (Tretinoin) [µM] | AUC (GSK690693) | IC50 (GSK690693) [µM] | AUC (UNC0638; [1]) | IC50 (UNC0638; [1]) [µM] | AUC (UNC0638; [2]) | IC50 (UNC0638; [2]) [µM] | AUC (WH-4-023) | IC50 (WH-4-023) [µM] | AUC (SB-505124) | IC50 (SB-505124) [µM] | AUC (BX-795) | IC50 (BX-795) [µM] | AUC (PI-103) | IC50 (PI-103) [µM] |
| --- | --- | --- | --- | --- | --- | --- | --- | --- | --- | --- | --- | --- | --- | --- | --- | --- |
| ST486 (Burkitt lymphoma, suspension) | 0.95 | > 10 | 0.918 | > 10.2 | 0.835 | 11.1 | 0.506 | 2.6 | 0.901 | > 5.12 | 0.982 | > 10 | 0.901 | > 5 | 0.176 | 0.079 |
| SU-DHL-4 (B-cell lymphoma, suspension) | 0.995 | > 10 | 0.068 | 0.0486 | 0.874 | 10.6 | 0.441 | 1.8 | 0.491 | 0.304 | 0.997 | > 10 | 0.943 | 4.53 | 0.234 | 0.144 |
| SU-DHL-6 (B-cell lymphoma, suspension) | 0.963 | > 10 | 0.063 | 0.041 | 0.859 | 10.2 | 0.651 | 5.81 | 0.391 | 0.174 | 0.993 | > 10 | 0.751 | 1.3 | 0.017 | < 0.04 |
| SU-DHL-16 (B-cell lymphoma, suspension) | 0.977 | > 10 | 0.045 | < 0.04 | 0.86 | 9.89 | 0.748 | 10 | 0.59 | 0.529 | 0.988 | > 10 | 0.803 | 1.73 | 0.008 | < 0.04 |
| SUP-HD1 (Hodgkin lymphoma, suspension) | 0.975 | > 10 | 0.876 | 9.35 | 0.822 | 10.9 | 0.562 | 3.65 | 0.927 | > 5.12 | 0.984 | > 10 | 0.764 | 1.73 | 0.374 | 0.293 |
| SUP-M2 (anaplastic large cell lymphoma, suspension) | 0.993 | > 10 | 0.969 | > 10.2 | 0.624 | 2.51 | 0.577 | 3.85 | 0.994 | > 5.12 | 0.965 | > 10 | 0.708 | 1.02 | 0.104 | 0.0561 |
| SUP-T1 (T-cell lymphoblastic leukaemia, suspension) | 0.962 | > 10 | 0.938 | > 10.2 | 0.833 | 11.3 | 0.663 | 6.78 | 0.986 | > 5.12 | 0.972 | > 10 | 0.928 | > 5 | 0.599 | 1.16 |
| SW684 (fibrosarcoma, adherent) | 0.969 | > 10 | 0.98 | > 10.2 | 0.98 | > 20 | 0.973 | > 40 | 0.409 | 0.16 | 0.98 | > 10 | 0.917 | > 5 | 0.921 | > 10.2 |
| SW962 (urogenital system, adherent) | 0.968 | > 10 | 0.958 | > 10.2 | 0.838 | 18.4 | 0.809 | 27.4 | 0.661 | 1 | 0.934 | > 10 | 0.774 | 2.46 | 0.859 | > 10.2 |
| TE-1 (oesophagus, adherent) | 0.972 | > 10 | 0.982 | > 10.2 | 0.816 | 15 | 0.924 | > 40 | 0.792 | 3.03 | 0.968 | > 10 | 0.908 | > 5 | 0.859 | > 10.2 |
| TE-5 (oesophagus, adherent) | 0.923 | > 10 | 0.927 | > 10.2 | 0.897 | > 20 | 0.951 | > 40 | 0.97 | > 5.12 | 0.955 | > 10 | 0.938 | > 5 | 0.983 | > 10.2 |
| TE-6 (oesophagus, adherent) | 0.969 | > 10 | 0.935 | > 10.2 | 0.963 | > 20 | 0.984 | > 40 | 0.912 | > 5.12 | 0.985 | > 10 | 0.895 | > 5 | 0.794 | 5.66 |
| TE-8 (oesophagus, adherent) | 0.972 | > 10 | 0.981 | > 10.2 | 0.982 | > 20 | 0.938 | > 40 | 0.429 | 0.202 | 0.888 | > 10 | 0.78 | 2.2 | 0.852 | 8.83 |
| TE-9 (oesophagus, adherent) | 0.976 | > 10 | 0.985 | > 10.2 | 0.905 | > 20 | 0.98 | > 40 | 0.782 | 2.22 | 0.974 | > 10 | 0.862 | 4.56 | 0.972 | > 10.2 |
| TE-11 (oesophagus, adherent) | 0.949 | > 10 | 0.989 | > 10.2 | 0.989 | > 20 | 0.985 | > 40 | 0.953 | > 5.12 | 0.96 | > 10 | 0.768 | 1.71 | 0.99 | > 10.2 |
| TE-12 (oesophagus, suspension) | 0.906 | > 10 | 0.943 | > 10.2 | 0.926 | > 20 | 0.924 | > 40 | 0.527 | 0.384 | 0.971 | > 10 | 0.93 | > 5 | 0.452 | 0.461 |
| TE-15 (oesophagus, suspension) | 0.966 | > 10 | 0.872 | > 10.2 | 0.982 | > 20 | 0.819 | 26.6 | 0.377 | 0.14 | 0.981 | > 10 | 0.875 | > 5 | 0.361 | 0.25 |
| TGBC1TKB (biliary tract, adherent) | 0.985 | > 10 | 0.987 | > 10.2 | 0.988 | > 20 | 0.88 | > 40 | 0.932 | > 5.12 | 0.968 | > 10 | 0.948 | > 5 | 0.989 | > 10.2 |
| TGW (neuroblastoma, adherent) | 0.804 | 4.19 | 0.991 | > 10.2 | 0.96 | > 20 | 0.861 | 26.4 | 0.956 | > 5.12 | 0.977 | > 10 | 0.766 | 1.6 | 0.649 | 1.55 |
| TK10 (kidney, adherent) | 0.98 | > 10 | 0.859 | > 10.2 | 0.746 | 7.49 | 0.976 | > 40 | 0.672 | – | 0.954 | > 10 | 0.874 | > 5 | 0.875 | > 10.2 |
| TUR (B-cell lymphoma, suspension) | 0.721 | 2.5 | 0.497 | 0.628 | 0.712 | 4.69 | 0.654 | 6.46 | 0.978 | > 5.12 | 0.979 | > 10 | 0.676 | 0.926 | 0.557 | 0.903 |
| U-87-MG (glioma, adherent) | 0.985 | > 10 | 0.924 | > 10.2 | 0.983 | > 20 | 0.746 | 14.6 | 0.984 | > 5.12 | 0.983 | > 10 | 0.915 | > 5 | 0.661 | 1.95 |
| U-698-M (B-cell leukaemia, suspension) | 0.981 | > 10 | 0.985 | > 10.2 | 0.8 | 9.71 | 0.741 | 12.3 | 0.968 | > 5.12 | 0.894 | > 10 | 0.921 | > 5 | 0.708 | 2.46 |
| UACC-257 (melanoma, adherent) | 0.947 | > 10 | 0.974 | > 10.2 | 0.791 | 11.5 | 0.6 | 5.03 | 0.973 | > 5.12 | 0.871 | > 10 | 0.943 | > 5 | 0.673 | 2.19 |
| VA-ES-BJ (soft tissue, adherent) | 0.98 | > 10 | 0.986 | > 10.2 | 0.975 | > 20 | 0.922 | > 40 | 0.55 | 0.44 | 0.593 | 1.14 | 0.689 | 1.09 | 0.645 | 1.66 |
| VCaP (prostate, adherent) | 0.959 | > 10 | 0.706 | 2.5 | 0.848 | 15.8 | 0.722 | 10.9 | 0.977 | > 5.12 | 0.986 | > 10 | 0.919 | > 5 | 0.321 | 0.199 |
| WIL2-NS (lymphoid neoplasm, suspension) | 0.99 | > 10 | 0.707 | 2.15 | 0.809 | 8.15 | 0.632 | 5.36 | 0.951 | > 5.12 | 0.991 | > 10 | 0.992 | > 5 | 0.188 | 0.0963 |
| WSU-NHL (lymphoid neoplasm, suspension) | 0.975 | > 10 | 0.989 | > 10.2 | 0.818 | 9.59 | 0.726 | 10 | 0.988 | > 5.12 | 0.979 | > 10 | 0.827 | 2.58 | 0.723 | 2.49 |
| YT (lymphoid neoplasm, suspension) | 0.955 | > 10 | 0.929 | > 10.2 | 0.991 | > 20 | 0.74 | 10.6 | 0.992 | > 5.12 | 0.991 | > 10 | 0.693 | 0.987 | 0.072 | < 0.04 |
| no-11 (glioma, adherent) | 0.982 | > 10 | 0.964 | > 10.2 | 0.981 | > 20 | 0.806 | 26.9 | 0.856 | > 5.12 | 0.98 | > 10 | 0.876 | > 5 | 0.525 | 0.764 |
